According to the supplement of paper PMC3334620:
The full ranking holds about 33,000 sequences; the median of “E-score (-0.5 to 0.5)” is about -0.016, and the highest 2% start at about 0.32. The list shows a part of the results.

target: T1, Stp1 (UniProt B3LFK1); assay: PBM E-score (8-mer binding enrichment) (E-score (-0.5 to 0.5)); higher = stronger / more preferred TF binding; most listed sequences are background and not binding sites; conditions: protein concentration: 200 nM; construct: GST-full length
T1 sequence: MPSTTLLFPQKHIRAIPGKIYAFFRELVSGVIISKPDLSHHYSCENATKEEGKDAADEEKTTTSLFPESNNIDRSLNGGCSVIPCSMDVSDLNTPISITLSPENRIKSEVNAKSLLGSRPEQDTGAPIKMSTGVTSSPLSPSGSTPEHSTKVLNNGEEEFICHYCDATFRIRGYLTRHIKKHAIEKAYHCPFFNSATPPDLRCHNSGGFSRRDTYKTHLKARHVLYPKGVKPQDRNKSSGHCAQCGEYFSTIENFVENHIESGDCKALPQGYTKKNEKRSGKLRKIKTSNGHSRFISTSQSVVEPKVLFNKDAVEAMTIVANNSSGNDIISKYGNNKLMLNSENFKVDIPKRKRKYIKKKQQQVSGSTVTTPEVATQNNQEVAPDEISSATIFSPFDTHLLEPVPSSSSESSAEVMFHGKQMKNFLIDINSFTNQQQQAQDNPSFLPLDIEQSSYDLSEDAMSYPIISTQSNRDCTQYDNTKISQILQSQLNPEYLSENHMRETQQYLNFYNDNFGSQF
Procedure: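 Universal 'all 10-mer' protein binding microarrays (Agilent AMADID 015681) probed with GST-tagged S. cerevisiae TFs (full-length or DBD) made by in vitro transcription/translation (PURExpress), about 100-200 nM. Bound TF was detected with fluorescent anti-GST. Each ungapped 8-mer (which stands for itself and its reverse complement) is scored by the PBM enrichment score (E-score), a modified Wilcoxon-Mann-Whitney statistic from -0.5 to +0.5, computed with the Universal PBM Analysis Suite. Scale: above 0.35 generally sequence-specific binding.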

| Sequence | PBM E-score |
| --- | --- |
| ACGGTTAA | 0.0599 |
| CACAAGTG | 0.0151 |
| AATCTGCA | -0.112 |
| CACGCGAA | -0.112 |
| ACAGGCGC | 0.116 |
| AGCAGAAG | -0.0798 |
| GAAGGATA | -0.186 |
| GTGTAGGA | -0.00643 |
| AGATTGAC | -0.0239 |
| GACGTAAC | -0.129 |
| AAATTATC | 0.213 |
| CGTTTGAC | 0.0103 |
| CGAGTCAC | -0.0751 |
| CCGCGAGA | -0.0951 |
| GCGGGTTA | 0.18 |
| GAGCGCAA | -0.277 |
| TCGTATCA | 0.0263 |
| AGTCCAGC | -0.0462 |
| CATCAAGC | 0.0726 |
| ATTCGGCA | 0.251 |
| AATCCTAC | -0.142 |
| ATTTCTAA | -0.00708 |

| Sequence | PBM E-score |
| --- | --- |
| CCCAGAAC | -0.161 |
| AGCGCGAC | -0.149 |
| ACCGCTCG | 0.0738 |
| CTAGCTAA | 0.0758 |
| GTTGAGTA | 0.00016 |
| ATTGGGTC | 0.0726 |
| AGTCTTAA | -0.0956 |
| CCATAACA | 0.148 |
| AATTGTGA | 0.116 |
| CGGAGTTC | 0.086 |
| AGTCCCAA | -0.271 |
| ATGAAACC | 0.13 |
| AGGTTACC | 0.0337 |
| CGAGGTTC | 0.0719 |
| AACATTCC | -0.173 |
| CGATTCCA | 0.0279 |
| GGCCGCCC | -0.0498 |
| GGTTAACC | -0.16 |
| AAGCGTCA | 0.0621 |
| AACCTTTG | -0.094 |
| CGGCCCCC | -0.171 |
| TGTTGAAA | 0.0365 |

| Sequence | PBM E-score |
| --- | --- |
| CTTTAGGA | 0.039 |
| CTAACCCA | -0.108 |
| TAAGTCTA | -0.229 |
| GCACTGAA | 0.0349 |
| ATCAGCTC | -0.131 |
| ATGTAGTA | 0.136 |
| GAGAGTCA | -0.231 |
| TCCACCCA | -0.225 |
| ACGGGATC | 0.0283 |
| TGTGAGAA | 0.113 |
| GCCGCTAC | 0.132 |
| AGTATGTG | -0.138 |
| CACGTAAC | -0.0706 |
| CAGCACGA | -0.0106 |
| GAACGGCA | 0.468 |
| ACCATCAT | -0.213 |
| GTTAAATA | 0.00954 |
| GGGATTTA | 0.153 |
| AAGCTGTG | -0.106 |
| ATGAGCTA | -0.0743 |
| CAAGTCAG | -0.0288 |
| AACTTAAG | 0.183 |

| Sequence | PBM E-score |
| --- | --- |
| GAAGATAA | 0.168 |
| AGGGAAAG | -0.0711 |
| CGGTGGAA | -0.112 |
| CTTGGATC | -0.078 |
| ACGCAACT | -0.0117 |
| CCCGATCG | -0.122 |
| ATCTGCGA | -0.0578 |
| GACCGATA | 0.0341 |
| ATGGAGTC | -0.212 |
| GAACTGCC | -0.0452 |
| AAGCGCAA | 0.0218 |
| AGACCAGA | -0.165 |
| CCGCCTAG | -0.119 |
| AATGGTCC | 0.0651 |
| AGCAGTAG | -0.206 |
| GTAGCTAC | -0.0578 |
| ATTCCCTG | 0.135 |
| GTCGAGCA | -0.132 |
| CGCCTGAC | 0.0401 |
| GATCCGCC | 0.15 |
| ACTGTGGA | -0.104 |
| AGGGAGGA | -0.204 |

| Sequence | PBM E-score |
| --- | --- |
| GAATATCC | 0.0896 |
| AGACGACT | -0.21 |
| GGATATCC | -0.0505 |
| CGGAACTA | 0.0347 |
| ATTGCTAA | 0.0687 |
| CACATTAG | -0.0393 |
| CAGTTCGA | -0.08 |
| CACTCTGA | -0.0382 |
| AGTGGGAA | 0.0327 |
| ATTGTTGG | 0.128 |
| CTGTATCA | -0.102 |
| GAAGAATC | -0.191 |
| CTGACTAA | -0.00902 |
| CGGTAGCC | -0.0248 |
| GGGTATAA | -0.0426 |
| CGATACCA | 0.0495 |
| CCAATAGA | 0.102 |
| ACATTCTA | 0.173 |
| AACCGTGC | 0.26 |
| CGAGCCCC | -0.231 |
| GAGGCTGC | 0.0204 |
| CCGGGTAA | -0.0766 |
